Hit rate of the full screen: of about 360,000 compounds, about 25,000 (6.9%) were called active. This list was built around the results that the source calls inconclusive (neither active nor inactive); the mix of calls is not that of the screen. Calls follow the shape of the dose curve; as a rule, active = well fitted inhibition curve with a large enough effect; inconclusive = small, poorly fitted or top-dose-only effect; inactive = flat fitted curve, though single readings scatter. Where the call is inconclusive, the potency comes from a doubtful curve fit.
Target: Luciferin 4-monooxygenase (Photinus pyralis) (UniProt P08659)
UniProt P08659, sequence (P08659 whole entry, looked up): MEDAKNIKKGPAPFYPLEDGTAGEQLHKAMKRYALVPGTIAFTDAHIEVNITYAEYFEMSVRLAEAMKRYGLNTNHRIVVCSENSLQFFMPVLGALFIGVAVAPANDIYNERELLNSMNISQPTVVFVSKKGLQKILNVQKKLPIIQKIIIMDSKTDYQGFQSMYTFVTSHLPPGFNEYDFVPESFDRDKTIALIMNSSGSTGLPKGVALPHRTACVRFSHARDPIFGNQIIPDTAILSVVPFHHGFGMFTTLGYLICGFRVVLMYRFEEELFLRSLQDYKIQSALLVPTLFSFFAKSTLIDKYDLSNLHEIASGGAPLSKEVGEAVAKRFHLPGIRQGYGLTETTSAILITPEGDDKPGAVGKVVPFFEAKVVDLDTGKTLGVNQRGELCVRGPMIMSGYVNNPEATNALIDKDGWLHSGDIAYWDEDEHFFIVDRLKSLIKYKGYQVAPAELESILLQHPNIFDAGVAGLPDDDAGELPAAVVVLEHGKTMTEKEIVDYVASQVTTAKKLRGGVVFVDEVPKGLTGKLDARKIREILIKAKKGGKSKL
Assay: qHTS profiling assay for firefly luciferase inhibitor/activator using purifed enzyme and Km concentrations of substrates (counterscreen for miR-21 project); also: nearly all actives have a fitted effect of over 55% in size;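 as to activity change, negative = inhibition: plate controls were vehicle for no effect and reference inhibitor for full effect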
Conditions: purified FLuc, luminescence inhibition; activity change, negative = inhibition: at 57.5 µM (top of the series)
Procedure, shortened: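 Purified P. pyralis luciferase, 10 nM final, with Km-level 10 uM D-luciferin and 10 uM ATP in 50 mM Tris acetate pH 7.5, 10 mM Mg acetate, 0.01% Tween-20, 0.05% BSA; 6-point qHTS titration about 60 µM downward; luminescence read.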
Potency is read from the fitted curve at half-maximal effect; tags tell the direction and shape of the fitted curve.

SMILES | activity change, negative = inhibition | Potency
O=C(Nc1ccc(F)cc1Cl)c1cnc(N2CCOCC2)c2ccccc12 | inactive: -9.15% | –
Cc1ccc2c(c1)N/C(=C(\C=C(/Cl)[N+](=O)[O-])[N+](=O)[O-])N2 | – | inconclusive: 30.1 µM [inhibitor, single point]
Cc1ccc(NC(=O)CCNC(=O)Cn2ccc3ccccc3c2=O)cc1F | – | active: 16.9 µM
Cc1nc2cc3nc(C)sc3cc2s1 | – | active: 12 µM
CCc1cccc2c(C(=O)COC(=O)c3ccccc3)c[nH]c12 | – | active: 2.39 µM
NS(=O)(=O)c1cccc(NC(=O)c2cc3ccccc3o2)c1 | – | active: 2.13 µM
Cc1nc(NCCOc2ccccc2)sc1C(=O)Nc1ccccc1 | – | inconclusive: 16.9 µM [inhibitor, partial curve]
Cc1ccc(C(=O)N/N=C/c2ccc(-c3cccc(Cl)c3)o2)cn1 | – | inconclusive: 21.3 µM [inhibitor, partial curve, poor fit]
O=C(NCc1nc(-c2ccccc2)cs1)c1ccccc1 | – | inconclusive: 37.9 µM [inhibitor, partial curve, poor fit]
COc1ccccc1Nc1nc(N)nc(-c2cc3ccccc3o2)n1 | – | inconclusive: 6.75 µM [inhibitor, full curve]
O=[N+]([O-])c1ccc(-[n+]2ccc3ccccc3c2)c([N+](=O)[O-])c1 | inactive: 1.18% | –
CC1(C)Cc2ccccc2C(N/N=C/c2cccc(F)c2)=N1 | inactive: -14.2% | –
Brc1cccc(-c2nnn3c2nc(N2CCCCC2)c2ccccc23)c1 | inactive: -0.0214% | –
O=[N+]([O-])c1ccc(N2CCCCC2)cc1NCCOc1ccccc1 | – | inconclusive: 10.7 µM [inhibitor, partial curve, poor fit]
Cc1cc(C(=O)CSc2nnnn2C)c(C)n1Cc1ccco1 | – | active: 13.5 µM
CCc1ccc(/C=C2/C(=O)NC(=O)N2C(C)=O)cc1 | – | active: 8.49 µM
CCOC(=O)c1ccc(NC(=O)CSc2ncc(S(=O)(=O)c3ccc(C)c(Cl)c3)c(=O)[nH]2)cc1 | – | inconclusive: 13.5 µM [inhibitor, partial curve]
CN(C)c1ccc(NC(=O)Cn2cc(S(=O)(=O)Cc3ccccc3Cl)c3ccccc32)cc1 | – | active: 9.53 µM
COc1cc(NC(=O)COc2ccccc2[N+](=O)[O-])ccc1NC(=O)c1cccs1 | – | inconclusive: 0.0107 µM [inhibitor, partial curve, poor fit]
Nc1cccc(-c2ccc(CO)o2)c1 | – | active: 16.9 µM
Cc1ccc(C(=O)Nc2cccc(C(=O)N/N=C/c3ccc(O)cc3)c2)cc1 | – | active: 0.675 µM
CN(CC(=O)Nc1ccccc1Br)C(=O)CN1CCN(Cc2ccc(Cl)cc2)CC1 | inactive: 2.37% | –
CSc1sccc1/C=N/NC(=O)c1ccncc1 | – | inconclusive: 23.9 µM [inhibitor, single point]
COC(=O)C(=N/Nc1ccccc1C(=O)OC)/C(C)=N/O | inactive: 2.81% | –
CCc1ccc2nc(N3CCC(C(=O)NCCC(C)C)CC3)sc2c1 | – | active: 1.9 µM
O=C(O)c1ccc(Sc2nnc(-c3cccc(Br)c3)o2)c([N+](=O)[O-])c1 | – | inconclusive: 26.9 µM [inhibitor, partial curve, poor fit]

SMILES | activity change, negative = inhibition | Potency
O=C(Cc1ccc(S(=O)(=O)N2CCOCC2)s1)Nc1nc2c(s1)CCCC2 | – | inconclusive: 23.9 µM [inhibitor, partial curve]
S=c1[nH]nc(-c2cccnc2)n1/N=C/c1ccco1 | – | inconclusive: 0.0107 µM [inhibitor, full curve]
Cc1nc2ccc(NC(=O)c3ccc([N+](=O)[O-])cc3[N+](=O)[O-])cc2s1 | inactive: 1.82% | –
CCCCc1nc2ccccc2[nH]1 | inactive: 2.17% | –
Cc1ccc(NC(=O)C(=O)NCC(c2ccc3c(c2)OCO3)N2CCN(C)CC2)cc1C (stereo unspecified) | inactive: 0.147% | –
Cc1ccc(/C=C/C(=O)Nc2cc(C)on2)cc1 | – | inconclusive: 1.9 µM [inhibitor, full curve]
COc1cc(/C=C/C(=O)OCc2csc(CC(=O)Nc3ccc(C)cc3)n2)ccc1OCC#N | – | inconclusive: 10.7 µM [inhibitor, partial curve]
CCn1c(C)csc1=NC(=O)c1ccccc1 | – | active: 19 µM
Cc1cc(C(C)(C)C)ccc1OC(=O)C1=CC=CN2CCS(=O)(=O)N=C12 | – | inconclusive: 23.9 µM [inhibitor, partial curve, poor fit]
Cc1c(NC(=S)N/N=C/C=C/c2ccc([N+](=O)[O-])cc2)c(=O)n(-c2ccccc2)n1C | inactive: -5.1% | –
COc1ccc(/C=C2\SC(N3CCCCC3)=NC2=O)cc1 | – | active: 10.7 µM
CCN(CC(=O)Nc1ccc2c(c1)OCCO2)C(=O)c1ccc([N+](=O)[O-])s1 | – | inconclusive: 23.9 µM [inhibitor, partial curve, poor fit]
CC(C)Oc1ccccc1/C=N/Nc1ccccc1[N+](=O)[O-] | – | inconclusive: 37.9 µM [inhibitor, partial curve, poor fit]
Cc1ccc(S(=O)(=O)NCCSCc2ccccc2)cc1 | – | inconclusive: 10.7 µM [inhibitor, partial curve]
O=C(Cn1nnc(-c2cccc(C(F)(F)F)c2)n1)NCc1ccc(F)cc1 | inactive: -1.49% | –
O=C(Nc1ccc2c(c1)OCO2)C1CCCCC1 | – | inconclusive: 26.9 µM [inhibitor, single point]
COc1ccc(-c2c(-c3ccccc3OC)oc3ccccc23)cn1 | – | inconclusive: 12 µM [inhibitor, single point]
COC(=O)c1ccc2c(=O)n(NC(C)=O)c(=S)[nH]c2c1 | inactive: 8.97% | –
COC(=O)Cc1ccc(NC(=S)Nc2cccc(C)n2)cc1 | – | inconclusive: 21.3 µM [inhibitor, single point]
CCCCCCc1cc2cc(-c3nnc(-c4ccccc4OC)o3)c(=O)oc2cc1O | – | inconclusive: 19 µM [inhibitor, partial curve, poor fit]
CC1Cc2ccccc2N1C(=O)CSC1=NCCS1 (stereo unspecified) | – | inconclusive: 37.9 µM [inhibitor, partial curve, poor fit]
O=C(c1ccc(-c2cccc(C(F)(F)F)c2)o1)N1CCOCC1 | – | inconclusive: 23.9 µM [inhibitor, single point]
COc1ccc(-n2c(=O)c3c4c(sc3n(CC(=O)C(C)(C)C)c2=O)CCCC4)c(OC)c1 | inactive: 1.32% | –
O=C(Nc1cccc(-c2nc3ccccc3o2)c1)c1cccnc1 | – | inconclusive: 3.01 µM [inhibitor, full curve]
Cc1ccccc1N(CC(=O)Nc1ccccc1C(=O)O)S(C)(=O)=O | – | inconclusive: 21.3 µM [inhibitor, partial curve]
COc1cccc(Nc2ccc(C(=O)O)cc2N)c1 | – | inconclusive: 26.9 µM [inhibitor, single point]

SMILES | activity change, negative = inhibition | Potency
COc1ccc2nc(Nc3ccc4c(c3)OCO4)sc2c1 | – | inconclusive: 2.39 µM [inhibitor, full curve]
CCCn1c(-c2ccc(OC)cc2)nc2ccccc21 | – | inconclusive: 26.9 µM [inhibitor, single point]
O=C(CN1CCSC1=O)N1CCN(S(=O)(=O)c2ccc(F)cc2)CC1 | inactive: 1.9% | –
CC(C)(O)C(=O)N=Nc1c(O)[nH]c2ccccc12 | – | inconclusive: 19 µM [inhibitor, single point]
Clc1cccc(Cl)c1C1=NOC(c2nnc(-c3ccccc3)o2)C1 (stereo unspecified) | – | active: 19 µM
CC(=O)NC(CC(=O)NCc1ccncc1)c1ccccc1 (stereo unspecified) | inactive: -1.99% | –
COc1ccc(S(=O)(=O)N(C)C)cc1NC(=O)c1ccc2c(c1)OCCO2 | inactive: -2.27% | –
Cc1ccc(-c2ccc(CCC(=O)O)n2-c2ccc(C)c(Cl)c2)cc1 | – | inconclusive: 10.7 µM [inhibitor, partial curve]
O=C(N/N=C\C=C\c1ccco1)c1cc(-c2ccc3ccccc3c2)n[nH]1 | – | inconclusive: 9.53 µM [inhibitor, partial curve]
Cc1ccc(C(=O)Nc2cccc(C(F)(F)F)c2)cc1NC(=O)c1csc(-c2ccncc2)n1 | – | inconclusive: 9.53 µM [inhibitor, partial curve]
Nc1cccc(Oc2ccc3c(c2)C(=O)N(CC2CCCO2)C3=O)c1 (stereo unspecified) | – | active: 23.9 µM
O=C1N=C2N(CCN3CCCCC3)c3ccccc3N2/C1=C\c1ccc([N+](=O)[O-])o1 | inactive: -1.81% | –
COc1ccc(NC(=O)CN2CCN(C3c4ccccc4-c4ccccc43)CC2)c(OC)c1 | inactive: -0.137% | –
CCOc1cc(/C=N/NC(=O)c2cccs2)cc([N+](=O)[O-])c1O | – | inconclusive: 21.3 µM [inhibitor, single point]
Cc1[nH]c(=O)[nH]c(=O)c1NC(=O)c1sc2nc3c(C)cccc3cc2c1N | – | inconclusive: 19 µM [inhibitor, partial curve, poor fit]
COc1ccc(N(CC(=O)O)S(=O)(=O)c2ccc(C)cc2)cc1Cl | – | inconclusive: 16.9 µM [inhibitor, partial curve, poor fit]
Cc1ccc(C(=O)Nc2cc(-c3nc4cc(Cl)ccc4o3)ccc2C)c(C)c1 | inactive: 4.89% | –
O=S(=O)(NCc1csc(-c2ccccc2)n1)c1ccccc1 | inactive: -16.7% | –
Cc1cccc(Cn2c(CN3CCC(C(=O)NCc4ccccc4Cl)CC3)cc3ccccc32)c1 | inactive: -0.0278% | –
O=C(COc1ccccc1Cl)Nc1ccccc1C(=O)NC1CC1 | inactive: -17.7% | –
Cc1cc(C)c2c(CC(=O)NNC(=O)c3ccccc3)coc2c1 | inactive: 0.385% | –
O=C(O)c1ccccc1-c1ccccc1C(=O)NCCCO | inactive: -8.06% | –
O=C(/C=C/c1ccc(Cl)cc1Cl)n1cccn1 | – | active: 3.79 µM
COc1ccc(C(=O)N/N=C(/C)c2ccc(N3CCCCC3)cc2)cc1 | – | inconclusive: 2.13 µM [inhibitor, full curve]

From PubChem BioAssay AID588342 (National Center for Advancing Translational Sciences (NCATS), 2011)
